US20100210558A1, “MINIGASTRIN AS A THERAPEUTIC AGENT” (priority 2007, published 2010)

Test system: HIV-1IIIB
Test: HIV-1 antiviral assay (CPE reduction, MTS)
Type: cell-based
Details: peptide 10 micrograms per ml, 6 days post-infection

Compound	% CPE reduction in HIV-1 infected CEM-SS cells
Cc1cn([C@H]2C[C@H](N=[N+]=[N-])[C@@H](CO)O2)c(=O)[nH]c1=O [AZT, reference compound]	99%
LEEEEEAYGWMDF-NH2 [Minigastrin I]	0.0%

Where no end group is shown, it is not given here.
